{"source": "the RNAGym collection of RNA variant scans (doi:10.1073/pnas.2313332121)", "parents": {"B1": {"name": "TPR 5TU (parent)", "chain": "GGAUCUUCUCGAUCUAACAAAAAAGACAAAUCUGCCACAAAGCUUGAGAGCAUCUUCGGAUGCAGAGGCGGCAGCCUUCGGUGGCGCGAUAGCGCCAACGUUCUCAACUAUGACACGCAAAACGCGUGCUCCGUUGAAUGGAGUUUAUCAUG"}}, "note": "Variants at the floor of the assay are shown more often than the library holds them.", "data": [{"variants_of": "B1", "assay": "polymerase ribozyme fitness, log enrichment relative to wild type (log ratio); higher = more active; in vitro selection for triplet polymerase activity", "how_it_was_run": "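Fitness is a logarithmic measure of how a genotype enriched relative to the wild type, with replicate averages weighted by inverse variance. The logarithm uses base 2, and enrichment came from Illumina sequencing of input and output libraries. Those libraries were PCR-built, transcribed mutants of each subunit of a heterodimeric triplet polymerase ribozyme, passed through one triplicate in vitro selection round that included frozen incubation at −7 °C, gel excision of extended constructs and streptavidin-bead capture. Genotypes were kept only if they had ≥10 input reads and ≥1 read per output.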", "values": [{"variant": "G34C G50C G84C U102A", "polymerase ribozyme fitness (log ratio)": "≤ -4.2"}, {"variant": "U33A G83A G133U", "polymerase ribozyme fitness (log ratio)": "≤ -4.2"}, {"variant": "G34C C93U U139A G141C", "polymerase ribozyme fitness (log ratio)": "≤ -4.2"}, {"variant": "U33G C75A G86U G143C", "polymerase ribozyme fitness (log ratio)": "≤ -4.2"}, {"variant": "C32U C103U", "polymerase ribozyme fitness (log ratio)": -2.66}, {"variant": "U33G C87A U134G A138U", "polymerase ribozyme fitness (log ratio)": "≤ -4.2"}, {"variant": "C32U U55A G140U U148G", "polymerase ribozyme fitness (log ratio)": "≤ -4.2"}, {"variant": "C32U G46C C85G", "polymerase ribozyme fitness (log ratio)": "≤ -4.2"}, {"variant": "C32U C51A G58A G83U C96G C116A G117C C125U A138G G143A", "polymerase ribozyme fitness (log ratio)": "≤ -4.2"}, {"variant": "G34A U55A C69A C76U G80C C87G A89C A107C C116U", "polymerase ribozyme fitness (log ratio)": "≤ -4.2"}, {"variant": "G34C C75A G94A C108G U130A", "polymerase ribozyme fitness (log ratio)": "≤ -4.2"}, {"variant": "U33A U45A U78G G88A U109A A137C", "polymerase ribozyme fitness (log ratio)": "≤ -4.2"}, {"variant": "C32U G48C G59A C85G A106C G128A", "polymerase ribozyme fitness (log ratio)": "≤ -4.2"}, {"variant": "U33G A41C C54A C72U C132U", "polymerase ribozyme fitness (log ratio)": "≤ -4.2"}, {"variant": "U33C A49G U77G U130A G133U U135A", "polymerase ribozyme fitness (log ratio)": "≤ -4.2"}, {"variant": "C32U U82C", "polymerase ribozyme fitness (log ratio)": -1.74}, {"variant": "C32U G50U C95A C131U G143A U151C", "polymerase ribozyme fitness (log ratio)": "≤ -4.2"}, {"variant": "U33G C36U A40C C51U C93U U134A A147C", "polymerase ribozyme fitness (log ratio)": "≤ -4.2"}, {"variant": "G34U U53A A60G C87G C95G C103A", "polymerase ribozyme fitness (log ratio)": "≤ -4.2"}, {"variant": "U33G G50C U56A U134G U145C", "polymerase ribozyme fitness (log ratio)": "≤ -4.2"}, {"variant": "G34A C99G G100A C129A A147U", "polymerase ribozyme fitness (log ratio)": "≤ -4.2"}, {"variant": "G34A A47U G50A C63U", "polymerase ribozyme fitness (log ratio)": -2.2}, {"variant": "U33C G80U A91C A122G", "polymerase ribozyme fitness (log ratio)": "≤ -4.2"}, {"variant": "G34C C36A A91C C96U C123G G140A", "polymerase ribozyme fitness (log ratio)": -4.15}, {"variant": "G34C A60G C96G C105G A137G", "polymerase ribozyme fitness (log ratio)": "≤ -4.2"}, {"variant": "U33C C57U A60U G81U C87U A91G", "polymerase ribozyme fitness (log ratio)": "≤ -4.2"}, {"variant": "C32U A40U C51U C57A C99A U111C", "polymerase ribozyme fitness (log ratio)": "≤ -4.2"}, {"variant": "C32U G42U C79G C129A A138G U146C", "polymerase ribozyme fitness (log ratio)": "≤ -4.2"}, {"variant": "U33G C51A G65U C125G", "polymerase ribozyme fitness (log ratio)": "≤ -4.2"}, {"variant": "U33C A39C G88A C118G C123A", "polymerase ribozyme fitness (log ratio)": "≤ -4.2"}, {"variant": "G34U A49G G71A A91C C93G", "polymerase ribozyme fitness (log ratio)": "≤ -4.2"}, {"variant": "U33A G92U C96U C129A G133A A137U C149G G152A", "polymerase ribozyme fitness (log ratio)": "≤ -4.2"}, {"variant": "G34A U45A U101A G141C", "polymerase ribozyme fitness (log ratio)": "≤ -4.2"}, {"variant": "U33G G65A G70C C108U", "polymerase ribozyme fitness (log ratio)": "≤ -4.2"}, {"variant": "C32U C63U A91U C96U A113U G124C", "polymerase ribozyme fitness (log ratio)": "≤ -4.2"}, {"variant": "G34U A39U C69G C76A G86U C93A", "polymerase ribozyme fitness (log ratio)": "≤ -4.2"}, {"variant": "C32U A49C A52G G58U G62C C131G", "polymerase ribozyme fitness (log ratio)": "≤ -4.2"}, {"variant": "U33C U56A G86C A91C A120U G141C", "polymerase ribozyme fitness (log ratio)": "≤ -4.2"}, {"variant": "U33A U82G C95U", "polymerase ribozyme fitness (log ratio)": "≤ -4.2"}, {"variant": "G34C A49C A52G U61G C87U C95A", "polymerase ribozyme fitness (log ratio)": -4.12}, {"variant": "G34U A64G U127A G128U", "polymerase ribozyme fitness (log ratio)": "≤ -4.2"}, {"variant": "U33G C57A C85A C96U", "polymerase ribozyme fitness (log ratio)": "≤ -4.2"}, {"variant": "U33A C79A C85U", "polymerase ribozyme fitness (log ratio)": "≤ -4.2"}, {"variant": "G34C A47C G58C G70A G71A A89U C93G", "polymerase ribozyme fitness (log ratio)": "≤ -4.2"}, {"variant": "C32U C69A G84A C96G U111A", "polymerase ribozyme fitness (log ratio)": "≤ -4.2"}, {"variant": "G34A G81C C105G A107G G124A", "polymerase ribozyme fitness (log ratio)": "≤ -4.2"}, {"variant": "C32U G59U U77A", "polymerase ribozyme fitness (log ratio)": "≤ -4.2"}, {"variant": "U33G G94A C123G G136A", "polymerase ribozyme fitness (log ratio)": "≤ -4.2"}, {"variant": "G34U G50U A91C", "polymerase ribozyme fitness (log ratio)": -4.01}, {"variant": "U33C C36U C93U", "polymerase ribozyme fitness (log ratio)": "≤ -4.2"}, {"variant": "U33A A47C G68U G92U U101C C103U A121U C131G U144G", "polymerase ribozyme fitness (log ratio)": "≤ -4.2"}, {"variant": "U33A U44G C54A G80A A138U", "polymerase ribozyme fitness (log ratio)": "≤ -4.2"}, {"variant": "G34C C87U", "polymerase ribozyme fitness (log ratio)": -3.33}, {"variant": "C32U A40C A52G G59A G88A G92A A115U U151G", "polymerase ribozyme fitness (log ratio)": "≤ -4.2"}, {"variant": "G34U A60C G62A G70A G83C C95G U104C", "polymerase ribozyme fitness (log ratio)": "≤ -4.2"}, {"variant": "U33A U145C", "polymerase ribozyme fitness (log ratio)": -4}, {"variant": "G34U C57A C76G G83A C116U", "polymerase ribozyme fitness (log ratio)": "≤ -4.2"}, {"variant": "G34A G83A C85A G112U A138U", "polymerase ribozyme fitness (log ratio)": "≤ -4.2"}, {"variant": "G34C C93A A121U G124U C149G", "polymerase ribozyme fitness (log ratio)": "≤ -4.2"}, {"variant": "U33G U55A A89G A110G", "polymerase ribozyme fitness (log ratio)": "≤ -4.2"}, {"variant": "U33G G59C G68C C69G G71C C72A A73G C96A C114G U127G", "polymerase ribozyme fitness (log ratio)": "≤ -4.2"}, {"variant": "G34U G88A A97G U102A C114G C131G", "polymerase ribozyme fitness (log ratio)": "≤ -4.2"}, {"variant": "C32U A39U U82A C85G G92A U101C G133C", "polymerase ribozyme fitness (log ratio)": "≤ -4.2"}, {"variant": "G34U C36U G80U C103G A106C", "polymerase ribozyme fitness (log ratio)": "≤ -4.2"}, {"variant": "C32U C76A G83U G92C C114U C123A", "polymerase ribozyme fitness (log ratio)": "≤ -4.2"}, {"variant": "U33G A113U", "polymerase ribozyme fitness (log ratio)": "≤ -4.2"}, {"variant": "U33G A113C", "polymerase ribozyme fitness (log ratio)": -4.01}, {"variant": "C32U C35U C99U U101G C118G", "polymerase ribozyme fitness (log ratio)": "≤ -4.2"}, {"variant": "G34A A52C A66U G74A A98U", "polymerase ribozyme fitness (log ratio)": "≤ -4.2"}, {"variant": "U33G A49C C75G G92A U101G C105A", "polymerase ribozyme fitness (log ratio)": -4.15}, {"variant": "G34U U45A C93U C116G U145C", "polymerase ribozyme fitness (log ratio)": "≤ -4.2"}, {"variant": "C32U G42A G59U C75G A106G C116G C131G C132U", "polymerase ribozyme fitness (log ratio)": "≤ -4.2"}, {"variant": "C32U U77G C103G A138U", "polymerase ribozyme fitness (log ratio)": "≤ -4.2"}, {"variant": "G34A C85A A89U C118A", "polymerase ribozyme fitness (log ratio)": "≤ -4.2"}, {"variant": "G34C C87G U90G G92A U148A", "polymerase ribozyme fitness (log ratio)": "≤ -4.2"}, {"variant": "G34A C38A A73U G86A C87U C116U", "polymerase ribozyme fitness (log ratio)": "≤ -4.2"}, {"variant": "G34A C76G G86A C95U C114U G140A U146C", "polymerase ribozyme fitness (log ratio)": "≤ -4.2"}, {"variant": "U33C A39U G50A U61A G128A C149U", "polymerase ribozyme fitness (log ratio)": "≤ -4.2"}, {"variant": "C32U G84U A115U G117U", "polymerase ribozyme fitness (log ratio)": "≤ -4.2"}, {"variant": "G34U U53G C54A G80A C116U", "polymerase ribozyme fitness (log ratio)": "≤ -4.2"}, {"variant": "U33C C85G", "polymerase ribozyme fitness (log ratio)": "≤ -4.2"}, {"variant": "U33A A41C U53C C57U G65A A66C G67C G80C", "polymerase ribozyme fitness (log ratio)": "≤ -4.2"}, {"variant": "C32U G74A C93U", "polymerase ribozyme fitness (log ratio)": -0.21}]}]}
